{"source": "patent US20100016547A1", "about": "“Glycosilated Peptide and Medicine Comprising It as an Effective Ingredient” (priority 2005, published 2010)", "note": "For part of these data: At least one read-out could not be matched to a standard name with certainty. For part of these data: At least one structure is not confirmed: it was looked up by name or label, or the drawing left a doubt. Peptide text beside a SMILES is read from it. * marks the point of attachment. X2 = CC(=O)N[C@@H]1[C@@H](O)[C@H](O[C@@H]2O[C@H](CO[C@]3(C(=O)O)C[C@H](O)[C@@H](NC(C)=O)[C@H]([C@H](O)[C@H](O)CO)O3)[C@H](O)[C@H](O)[C@H]2O)[C@@H](CO)O[C@H]1N*; NH(β-GlcNAc) = CC(=O)N[C@@H]1[C@@H](O)[C@H](O)[C@@H](CO)O[C@H]1N*", "data": [{"biological_target": "GLP-1 receptor (Homo sapiens, UniProt P43220)", "sequence (P43220 24-463, species assumed)": "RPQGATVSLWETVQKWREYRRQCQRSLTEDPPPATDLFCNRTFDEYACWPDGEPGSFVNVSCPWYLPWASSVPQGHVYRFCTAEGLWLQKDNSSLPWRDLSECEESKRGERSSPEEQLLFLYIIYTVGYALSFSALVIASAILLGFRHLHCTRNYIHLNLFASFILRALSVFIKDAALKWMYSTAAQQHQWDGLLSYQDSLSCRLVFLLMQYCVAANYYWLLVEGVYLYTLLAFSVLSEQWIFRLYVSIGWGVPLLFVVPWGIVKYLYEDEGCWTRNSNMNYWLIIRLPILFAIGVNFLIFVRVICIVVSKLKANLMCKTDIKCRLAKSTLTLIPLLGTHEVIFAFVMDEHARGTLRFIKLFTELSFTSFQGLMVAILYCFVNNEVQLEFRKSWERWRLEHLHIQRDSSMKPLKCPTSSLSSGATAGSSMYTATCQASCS", "test": "Assay for production of cAMP", "conditions": "read-out: EC50 (cAMP assay); CHO cells forced to express GLP-1 receptor; 100% = maximum cAMP produced by GLP-1", "units": {"EC50": "nM"}, "values": [{"compound": "CC[C@H](C)[C@H](NC(=O)[C@H](Cc1ccccc1)NC(=O)[C@H](CCC(=O)O)NC(=O)[C@H](CCCCN)NC(=O)[C@H](C)NC(=O)[C@H](C)NC(=O)[C@H](CCC(N)=O)NC(=O)CNC(=O)[C@H](CCC(=O)O)NC(=O)[C@H](CC(C)C)NC(=O)[C@H](Cc1ccc(O)cc1)NC(=O)[C@H](CO)NC(=O)[C@H](CO)NC(=O)[C@@H](NC(=O)[C@H](CC(=O)O)NC(=O)[C@H](CO)NC(=O)[C@@H](NC(=O)[C@H](Cc1ccccc1)NC(=O)[C@@H](NC(=O)CNC(=O)[C@H](CCC(=O)O)NC(=O)[C@H](C)NC(=O)[C@@H](N)Cc1c[nH]cn1)[C@@H](C)O)[C@@H](C)O)C(C)C)C(=O)N[C@@H](C)C(=O)N[C@@H](Cc1c[nH]c2ccccc12)C(=O)N[C@@H](CC(C)C)C(=O)N[C@H](C(=O)N[C@@H](CCCCN)C(=O)NCC(=O)N[C@@H](CCCNC(=N)N)C(=O)N[C@@H](CC(N)=O)C(N)=O)C(C)C", "note": "[GL37N]", "EC50": 0.09}]}, {"biological_target": "recombinant human DPP-IV (Homo sapiens, UniProt P27487)", "sequence (P27487 whole entry)": "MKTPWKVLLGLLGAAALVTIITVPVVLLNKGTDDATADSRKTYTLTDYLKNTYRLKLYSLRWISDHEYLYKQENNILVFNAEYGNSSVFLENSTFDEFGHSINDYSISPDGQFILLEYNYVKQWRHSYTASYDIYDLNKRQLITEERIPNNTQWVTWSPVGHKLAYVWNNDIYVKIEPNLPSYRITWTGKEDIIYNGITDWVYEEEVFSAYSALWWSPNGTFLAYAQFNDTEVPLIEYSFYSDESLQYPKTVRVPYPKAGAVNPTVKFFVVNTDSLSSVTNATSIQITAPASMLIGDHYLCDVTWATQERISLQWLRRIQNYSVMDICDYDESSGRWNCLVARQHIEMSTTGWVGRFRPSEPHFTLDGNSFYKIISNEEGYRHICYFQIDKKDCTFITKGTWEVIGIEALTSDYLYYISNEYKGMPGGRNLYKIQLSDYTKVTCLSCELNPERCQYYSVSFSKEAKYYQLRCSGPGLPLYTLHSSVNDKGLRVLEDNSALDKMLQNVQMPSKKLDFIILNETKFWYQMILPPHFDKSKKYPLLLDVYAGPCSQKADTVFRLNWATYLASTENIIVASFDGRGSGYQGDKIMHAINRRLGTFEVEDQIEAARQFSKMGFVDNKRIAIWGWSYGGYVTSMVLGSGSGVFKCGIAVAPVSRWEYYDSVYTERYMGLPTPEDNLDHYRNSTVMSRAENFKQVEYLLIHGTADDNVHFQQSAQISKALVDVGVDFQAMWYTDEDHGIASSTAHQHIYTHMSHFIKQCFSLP", "test": "Assay for degradation kinetics by DPP-IV", "conditions": "degradation by DPPIV, 37° C., pH 7.5; ND means no degradation product", "values": [{"compound": "CC[C@H](C)[C@H](NC(=O)[C@H](Cc1ccccc1)NC(=O)[C@H](CCC(=O)O)NC(=O)[C@H](CC(=O)N[C@@H]1O[C@H](CO)[C@@H](O[C@@H]2O[C@H](CO[C@]3(C(=O)O)C[C@H](O)[C@@H](NC(C)=O)[C@H]([C@H](O)[C@H](O)CO)O3)[C@H](O)[C@H](O)[C@H]2O)[C@H](O)[C@H]1NC(C)=O)NC(=O)[C@H](C)NC(=O)[C@H](C)NC(=O)[C@H](CCC(N)=O)NC(=O)CNC(=O)[C@H](CCC(=O)O)NC(=O)[C@H](CC(C)C)NC(=O)[C@H](Cc1ccc(O)cc1)NC(=O)[C@H](CO)NC(=O)[C@H](CO)NC(=O)[C@@H](NC(=O)[C@H](CC(=O)O)NC(=O)[C@H](CO)NC(=O)[C@@H](NC(=O)[C@H](Cc1ccccc1)NC(=O)[C@@H](NC(=O)CNC(=O)[C@H](CCC(=O)O)NC(=O)[C@H](C)NC(=O)[C@@H](N)Cc1c[nH]cn1)[C@@H](C)O)[C@@H](C)O)C(C)C)C(=O)N[C@@H](C)C(=O)N[C@@H](Cc1c[nH]c2ccccc12)C(=O)N[C@@H](CC(C)C)C(=O)N[C@H](C(=O)N[C@@H](CCCCN)C(=O)NCC(=O)N[C@@H](CCCNC(=N)N)C(N)=O)C(C)C", "note": "[GL26NS6]", "resistance: kcat/KM": "0.92 10^4/Ms"}, {"compound": "CC[C@H](C)[C@H](NC(=O)[C@H](Cc1ccccc1)NC(=O)[C@H](CCC(=O)O)NC(=O)[C@H](CCCCN)NC(=O)[C@H](C)NC(=O)[C@H](C)NC(=O)[C@H](CCC(N)=O)NC(=O)CNC(=O)[C@H](CCC(=O)O)NC(=O)[C@H](CC(C)C)NC(=O)[C@H](Cc1ccc(O)cc1)NC(=O)[C@H](CO)NC(=O)[C@H](CO)NC(=O)[C@@H](NC(=O)[C@H](CC(=O)O)NC(=O)[C@H](CO)NC(=O)[C@@H](NC(=O)[C@H](Cc1ccccc1)NC(=O)[C@@H](NC(=O)CNC(=O)[C@H](CCC(=O)O)NC(=O)[C@H](C)NC(=O)[C@@H](N)Cc1c[nH]cn1)[C@@H](C)O)[C@@H](C)O)C(C)C)C(=O)N[C@@H](C)C(=O)N[C@@H](Cc1c[nH]c2ccccc12)C(=O)N[C@@H](CC(C)C)C(=O)N[C@H](C(=O)N[C@@H](CC(=O)N[C@@H]1O[C@H](CO)[C@@H](O)[C@H](O)[C@H]1NC(C)=O)C(=O)NCC(=O)N[C@@H](CCCNC(=N)N)C(N)=O)C(C)C", "note": "[GL34NG]", "resistance: kcat/KM": "2.1 10^4/Ms"}, {"compound": "CC[C@H](C)[C@H](NC(=O)[C@H](Cc1ccccc1)NC(=O)[C@H](CCC(=O)O)NC(=O)[C@H](CC(=O)N[C@@H]1O[C@H](CO)[C@@H](O[C@@H]2O[C@H](CO)[C@H](O)[C@H](O)[C@H]2O)[C@H](O)[C@H]1NC(C)=O)NC(=O)[C@H](C)NC(=O)[C@H](C)NC(=O)[C@H](CCC(N)=O)NC(=O)CNC(=O)[C@H](CCC(=O)O)NC(=O)[C@H](CC(C)C)NC(=O)[C@H](Cc1ccc(O)cc1)NC(=O)[C@H](CO)NC(=O)[C@H](CO)NC(=O)[C@@H](NC(=O)[C@H](CC(=O)O)NC(=O)[C@H](CO)NC(=O)[C@@H](NC(=O)[C@H](Cc1ccccc1)NC(=O)[C@@H](NC(=O)CNC(=O)[C@H](CCC(=O)O)NC(=O)[C@H](C)NC(=O)[C@@H](N)Cc1c[nH]cn1)[C@@H](C)O)[C@@H](C)O)C(C)C)C(=O)N[C@@H](C)C(=O)N[C@@H](Cc1c[nH]c2ccccc12)C(=O)N[C@@H](CC(C)C)C(=O)N[C@H](C(=O)N[C@@H](CCCCN)C(=O)NCC(=O)N[C@@H](CCCNC(=N)N)C(N)=O)C(C)C", "note": "[GL26NL]", "resistance: kcat/KM": "2.0 10^4/Ms"}, {"compound": "CC[C@H](C)[C@H](NC(=O)[C@H](Cc1ccccc1)NC(=O)[C@H](CCC(=O)O)NC(=O)[C@H](CCCCN)NC(=O)[C@H](C)NC(=O)[C@H](C)NC(=O)[C@H](CCC(N)=O)NC(=O)CNC(=O)[C@H](CCC(=O)O)NC(=O)[C@H](CC(C)C)NC(=O)[C@H](Cc1ccc(O)cc1)NC(=O)[C@H](CO)NC(=O)[C@H](CO)NC(=O)[C@@H](NC(=O)[C@H](CC(=O)O)NC(=O)[C@H](CO)NC(=O)[C@@H](NC(=O)[C@H](Cc1ccccc1)NC(=O)[C@@H](NC(=O)CNC(=O)[C@H](CCC(=O)O)NC(=O)[C@H](C)NC(=O)[C@@H](N)Cc1c[nH]cn1)[C@@H](C)O)[C@@H](C)O)C(C)C)C(=O)N[C@@H](C)C(=O)N[C@@H](Cc1c[nH]c2ccccc12)C(=O)N[C@@H](CC(C)C)C(=O)N[C@H](C(=O)N[C@@H](CC(N)=O)C(=O)NCC(=O)N[C@@H](CCCNC(=N)N)C(N)=O)C(C)C", "note": "[GL34N]", "resistance: kcat/KM": "4.9 10^4/Ms"}, {"compound": "CC[C@H](C)[C@H](NC(=O)[C@H](Cc1ccccc1)NC(=O)[C@H](CCC(=O)O)NC(=O)[C@H](CCCCN)NC(=O)[C@H](C)NC(=O)[C@H](C)NC(=O)[C@H](CCC(N)=O)NC(=O)CNC(=O)[C@H](CCC(=O)O)NC(=O)[C@H](CC(C)C)NC(=O)[C@H](CC(=O)N[C@@H]1O[C@H](CO)[C@@H](O)[C@H](O)[C@H]1NC(C)=O)NC(=O)[C@H](CO)NC(=O)[C@H](CO)NC(=O)[C@@H](NC(=O)[C@H](CC(=O)O)NC(=O)[C@H](CO)NC(=O)[C@@H](NC(=O)[C@H](Cc1ccccc1)NC(=O)[C@@H](NC(=O)CNC(=O)[C@H](CCC(=O)O)NC(=O)[C@H](C)NC(=O)[C@@H](N)Cc1c[nH]cn1)[C@@H](C)O)[C@@H](C)O)C(C)C)C(=O)N[C@@H](C)C(=O)N[C@@H](Cc1c[nH]c2ccccc12)C(=O)N[C@@H](CC(C)C)C(=O)N[C@H](C(=O)N[C@@H](CCCCN)C(=O)NCC(=O)N[C@@H](CCCNC(=N)N)C(N)=O)C(C)C", "note": "[GL19NG] (H-HAEGTFTSDVSSD(NH(β-GlcNAc))LEGQAAKEFIAWLVKGR-NH2)", "resistance: kcat/KM": "4.1 10^4/Ms"}, {"compound": "H-HAEGTFTSDVSSNLEGQAAKEFIAWLVKGR-NH2 [GL19N]", "resistance: kcat/KM": "9.1 10^4/Ms"}, {"compound": "CC[C@H](C)[C@H](NC(=O)[C@H](Cc1ccccc1)NC(=O)[C@H](CCC(=O)O)NC(=O)[C@H](CCCCN)NC(=O)[C@H](C)NC(=O)[C@H](C)NC(=O)[C@H](CCC(N)=O)NC(=O)CNC(=O)[C@H](CCC(=O)O)NC(=O)[C@H](CC(C)C)NC(=O)[C@H](CC(=O)N[C@@H]1O[C@H](CO)[C@@H](O[C@@H]2O[C@H](CO[C@]3(C(=O)O)C[C@H](O)[C@@H](NC(C)=O)[C@H]([C@H](O)[C@H](O)CO)O3)[C@H](O)[C@H](O)[C@H]2O)[C@H](O)[C@H]1NC(C)=O)NC(=O)[C@H](CO)NC(=O)[C@H](CO)NC(=O)[C@@H](NC(=O)[C@H](CC(=O)O)NC(=O)[C@H](CO)NC(=O)[C@@H](NC(=O)[C@H](Cc1ccccc1)NC(=O)[C@@H](NC(=O)CNC(=O)[C@H](CCC(=O)O)NC(=O)[C@H](C)NC(=O)[C@@H](N)Cc1c[nH]cn1)[C@@H](C)O)[C@@H](C)O)C(C)C)C(=O)N[C@@H](C)C(=O)N[C@@H](Cc1c[nH]c2ccccc12)C(=O)N[C@@H](CC(C)C)C(=O)N[C@H](C(=O)N[C@@H](CCCCN)C(=O)NCC(=O)N[C@@H](CCCNC(=N)N)C(N)=O)C(C)C", "note": "[GL19NS6] (H-HAEGTFTSDVSSD(X2)LEGQAAKEFIAWLVKGR-NH2)", "resistance: kcat/KM": "1.1 10^4/Ms"}, {"compound": "CC[C@H](C)[C@H](NC(=O)[C@H](Cc1ccccc1)NC(=O)[C@H](CCC(=O)O)NC(=O)[C@H](CCCCN)NC(=O)[C@H](C)NC(=O)[C@H](C)NC(=O)[C@H](CCC(N)=O)NC(=O)CNC(=O)[C@H](CCC(=O)O)NC(=O)[C@H](CC(C)C)NC(=O)[C@H](Cc1ccc(O)cc1)NC(=O)[C@H](CO)NC(=O)[C@H](CO)NC(=O)[C@@H](NC(=O)[C@H](CC(=O)O)NC(=O)[C@H](CO)NC(=O)[C@@H](NC(=O)[C@H](Cc1ccccc1)NC(=O)[C@@H](NC(=O)CNC(=O)[C@H](CCC(=O)O)NC(=O)[C@H](C)NC(=O)[C@@H](N)Cc1c[nH]cn1)[C@@H](C)O)[C@@H](C)O)C(C)C)C(=O)N[C@@H](C)C(=O)N[C@@H](Cc1c[nH]c2ccccc12)C(=O)N[C@@H](CC(C)C)C(=O)N[C@H](C(=O)N[C@@H](CC(=O)N[C@@H]1O[C@H](CO)[C@@H](O[C@@H]2O[C@H](CO)[C@H](O)[C@H](O)[C@H]2O)[C@H](O)[C@H]1NC(C)=O)C(=O)NCC(=O)N[C@@H](CCCNC(=N)N)C(N)=O)C(C)C", "note": "[GL34NL]", "resistance: kcat/KM": "2.5 10^4/Ms"}]}]}
